Source: publication PMC10462657
These are yes or no findings as the source states them, for the method shown. Binding seen in cells or lysates may run through a third protein. Some binding calls cover weakened binding; strength is not graded here. For some assays here: Tags and fused reporters may be left off the sequences shown.

Sequences of proteins named here, by UniProt entry; tags and fusion partners are left off. Residues count along the entry.
UniProt P38646, residues 47-679: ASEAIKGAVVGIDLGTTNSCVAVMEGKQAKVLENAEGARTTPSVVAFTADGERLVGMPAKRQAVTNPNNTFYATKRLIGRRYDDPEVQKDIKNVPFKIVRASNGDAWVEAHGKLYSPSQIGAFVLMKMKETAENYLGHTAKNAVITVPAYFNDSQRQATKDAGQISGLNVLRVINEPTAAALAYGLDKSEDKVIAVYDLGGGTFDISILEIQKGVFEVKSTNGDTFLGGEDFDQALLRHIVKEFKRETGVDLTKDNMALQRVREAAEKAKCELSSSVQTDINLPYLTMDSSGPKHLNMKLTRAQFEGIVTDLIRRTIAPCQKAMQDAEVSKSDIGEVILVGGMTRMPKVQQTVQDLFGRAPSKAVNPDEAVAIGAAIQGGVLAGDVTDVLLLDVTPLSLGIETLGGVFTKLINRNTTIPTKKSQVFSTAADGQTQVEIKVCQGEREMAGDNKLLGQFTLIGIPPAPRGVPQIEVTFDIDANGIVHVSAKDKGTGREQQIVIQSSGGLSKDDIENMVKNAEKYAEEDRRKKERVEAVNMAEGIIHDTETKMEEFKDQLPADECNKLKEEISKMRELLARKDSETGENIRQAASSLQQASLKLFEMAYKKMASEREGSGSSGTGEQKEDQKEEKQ

How the values were obtained:
[1] = target: FLAG-tagged wild-type human BCL-RAMBO (1–485) (human) (UniProt Q9BXK5); assay: co-IP; 293T cells co-transfected with FLAG-BCL-RAMBO, VSV-GRP75 and VSV-VDAC1 together for 18 h; anti-FLAG antibody beads; Western blotting
[2] = target: T1, FLAG-tagged BCL-RAMBO (1–223) (human) (UniProt Q9BXK5); assay: co-IP; 293T cells co-transfected with a FLAG-tagged and a VSV-tagged protein for 18 h; 0.2% NP-40 lysis buffer (150 mM NaCl, 20 mM Tris-HCl pH 7.4, 10% glycerol); anti-FLAG M2 agarose beads, 4 °C, 3 h; Western blotting
T1 sequence: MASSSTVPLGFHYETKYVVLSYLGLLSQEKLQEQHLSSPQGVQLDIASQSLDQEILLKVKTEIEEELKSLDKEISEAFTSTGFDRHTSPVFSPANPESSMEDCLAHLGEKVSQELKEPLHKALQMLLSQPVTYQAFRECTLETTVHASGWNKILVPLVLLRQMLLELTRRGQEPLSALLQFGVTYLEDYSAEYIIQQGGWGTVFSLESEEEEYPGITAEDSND

[3] = target: FLAG-tagged wild-type human BCL-RAMBO (1–485) (human) (UniProt Q9BXK5); assay: as above
[4] = target: FLAG-tagged BCL-RAMBO (1–459) (human) (UniProt Q9BXK5); assay: as above
[5] = target: FLAG-tagged BCL-RAMBO (205–459) (human) (UniProt Q9BXK5); assay: as above

“VSV-GRP75, full-length GRP75 (1–679) (from UniProt P38646 47-679)” was tested, and the binding [1] was “binds”, the binding [2] was “no binding” and the binding [3] was “binds”. For the same substance, the binding [4] was “binds” and the binding [5] was “binds”.
